Measured values: PubChem BioAssay AID1347073 (National Center for Advancing Translational Sciences (NCATS), 2019)
Out of some 45,000 compounds screened, about 200 (0.44%) were called active. Not shown: some 7% with an inconclusive outcome. Calls follow the shape of the dose curve; as a rule, active = well fitted activation curve with a large enough effect; inconclusive = small, poorly fitted or top-dose-only effect; inactive = no such curve, though single readings can be large or run the other way. Some of the results follow.

Experiment: qHTS of TDP-43 Inhibitors: NCGC Sytravon Library Screen; also: nearly all actives have a fitted effect of over 55% in size; as to growth rescue (activation): 0% is about no effect
Conditions: yeast TDP-43 toxicity rescue, BacTiter-Glo growth, 24 h; series mostly up to 46.1 µM; growth rescue (activation): at the top concentration
Summary of the method: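 TDP-43-expressing yeast, pregrown in raffinose, seeded at OD600 0.02 in galactose medium with compound for 24 hr at 30 deg C. Growth read by BacTiter-Glo luminescence, so rescue of toxicity appears as activation.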
Potency is read from the fitted curve at half-maximal effect.

SMILES	growth rescue (activation)	Potency
CCN1CCc2c(C#N)c(N3CCOCC3)nc(NCc3ccccc3)c2C1	inactive: 27%	
Cc1nccn1CCC(=O)Nc1ccc(Cl)cc1	inactive: 4.41%	
Fc1ccc(Br)cc1/C=N/n1cnnc1	inactive: 6.6%	
Cc1ccc(N(CC2CO2)S(=O)(=O)c2ccc([N+](=O)[O-])cc2)cc1 (stereo unspecified)	inactive: 12.2%	
Cc1occc1-c1nnc(-c2cc([N+](=O)[O-])cc([N+](=O)[O-])c2)o1	inactive: 3.34%	
CCCN1CCN(C(=O)Cn2nc(C)n3c(cc4c(OC)cccc43)c2=O)CC1	inactive: -2.08%	
CCOC(=O)/C(C#N)=C/Nc1ccccc1NS(=O)(=O)c1cccc(C(C)=O)c1	inactive: 6.37%	
O=C(NCCc1ccccc1)/C(=N\O)c1ccccc1	inactive: 7.38%	
O=C(NCc1cccc(F)c1)Nc1nnc([C@H]2C[C@H](O)[C@@H](CO)O2)s1	inactive: 3.07%	
O=S(=O)(Nc1nc2ccccc2nc1NCC1CCCO1)c1ccc(F)cc1 (stereo unspecified)	inactive: 2.54%	
Cc1c(C)n(Cc2ccccc2)c2ncnc(NCCO)c12	inactive: 6.82%	
Nc1c(C(=O)OCC(=O)NCc2ccccc2)[nH]c(=O)[nH]c1=O	inactive: 25.5%	
C#CCOc1c(Br)cc(/C=C2/C(=O)ON=C2C)cc1OC	inactive: 2.96%	
COc1ccc(N=Cc2c(O)n(-c3cccc(C)n3)c(=O)c3ccccc23)cc1	inactive: 19.4%	
COc1ccc(CNC(=O)c2ccccc2NS(C)(=O)=O)cc1	inactive: 7.47%	
N/C(=N\OC(=O)c1cccs1)c1ccccc1	inactive: 16.5%	
Cc1ccc(NC(=O)/C=C/c2ccc(S(=O)(=O)N3CCOCC3)cc2)cc1S(=O)(=O)N(C)C	inactive: -3.13%	
O=C(CCC(=O)Nc1ccccc1)NNC(=O)C(c1ccccc1)c1ccccc1	inactive: 10.1%	
Cc1nc2cc(NS(=O)(=O)c3ccccc3)ccc2n1C	inactive: 9.09%	
CCn1c(SCC(=O)Nc2c(C)n(C)n(-c3ccccc3)c2=O)nc2c1c(=O)n(C)c(=O)n2C	inactive: 10.9%	
COc1ccc(-n2c(SC(C)C(=O)Nc3ccc(NC(C)=O)cc3)nc3ccccc3c2=O)cc1OC (stereo unspecified)	inactive: -8.18%	
O=C(COc1ccc(Cl)cc1Cl)Nc1cccnc1	inactive: 27%	

SMILES	growth rescue (activation)	Potency
CCOC(=O)C1CCCN(C(=O)c2ccc(C(F)(F)F)nc2C)CC1 (stereo unspecified)	inactive: 15.5%	
O=C(NC1CCCCC1)c1ccc(-n2cncn2)c([N+](=O)[O-])c1	inactive: 6.73%	
O=C(O)c1ccc2c(c1)C(=O)N(NC(=O)c1ccc(O)cc1)C2=O	inactive: -16.8%	
CCCC(=O)N1CCCC(c2cc(C(=O)NCc3cccnc3)no2)C1 (stereo unspecified)	inactive: 8.78%	
COc1ccc(C(=O)O/N=C/c2ccc(S(=O)(=O)c3ccc(Cl)cc3)nc2)cc1	inactive: -9.54%	
CCN(Cc1ccccc1)S(=O)(=O)c1cc(C(=O)NC(C)C2CC3CCC2C3)ccc1OC (stereo unspecified)	inactive: -7.45%	
CN(CCC#N)C(=O)COc1ccc(Br)cc1Cl	inactive: 1.98%	
O=C(CN1CCCCCC1)NCc1ccccc1	inactive: 5.61%	
CCc1ccccc1NC(=O)N1CCC(NC(=O)C(Cc2ccccc2)NC(C)=O)CC1 (stereo unspecified)	inactive: 1.73%	
Cc1nnc(SCC(=O)Nc2ccccc2)c2ccccc12	inactive: 14%	
CCOC(=O)c1ccc(S(=O)(=O)Nc2ccc(N3CCOCC3)cc2)cc1	inactive: -5.76%	
O=C(CN(c1ccccc1)S(=O)(=O)c1ccccc1)N1CCOCC1	inactive: -7.45%	
Cc1ccc(S(=O)(=O)N2CCOCC2)cc1C(=O)OCC(=O)N1CCCC1=O	inactive: -4.06%	
COc1cc(C)c(S(=O)(=O)N2CCN=C2c2ccccc2)cc1C	inactive: 6.27%	
Nn1c(COc2ccccc2)nc2ccccc2c1=O	inactive: 40.7%	
COc1cc(C2NC(=O)NC(C)=C2C(=O)OCC2CCCO2)cc(OC)c1OC (stereo unspecified)	inactive: 0.965%	
Cc1ccc(NC(=O)c2ccc(OC(=O)COc3cccc(Cl)c3)cc2)cc1	inactive: 26.4%	
Cc1ccc(NC(=S)N2CCCC(c3nc4ccccc4[nH]3)C2)cc1 (stereo unspecified)	inactive: 11%	
COc1ccc(CNC(=O)N2CCN(S(=O)(=O)c3ccccc3F)CC2)cc1	inactive: 15.6%	
COc1ccc(OC)c(NC(=O)CC2SC(=Nc3ccc(F)cc3)N(CCC3=CCCCC3)C2=O)c1 (stereo unspecified)	inactive: 14.2%	
O=c1cc(-c2ccc(O)cc2)oc2ccc(O)cc12	inactive: -7.93%	
O=C(/C=C/c1ccc(S(=O)(=O)N2CCOCC2)cc1)NCc1ccccc1Cl	inactive: -10.1%	

SMILES	growth rescue (activation)	Potency
COc1cc(C(=O)NNC(=O)c2cc(-c3ccccc3)n[nH]2)cc(OC)c1C	inactive: 1.48%	
COc1ccc(C(=O)O)cc1S(=O)(=O)NC(C)C12CC3CC(CC(C3)C1)C2 (stereo unspecified)	inactive: 28%	
CC(=O)Oc1cccc(C(=O)Nc2ccccc2C(=O)N2CCCC2)c1	inactive: 18%	
CN(C)Cc1cc2ccccc2c2c1COC2	inactive: -16.7%	
CCCS(=O)(=O)NC(=O)C1(C)CCN(C(=O)c2cc(C)n(C(C)(C)C)n2)C1 (stereo unspecified)	inactive: 2.13%	
Cc1ccc(S(=O)(=O)Nc2nc(C)c(C(=O)N/N=C/c3ccccc3)s2)cc1	inactive: 15.2%	
COc1ccc(NC(=O)C2C(=O)N(CCO)C3(C)CC2c2ccccc2O3)cc1 (stereo unspecified)	inactive: 6.21%	
CCNC(=S)N1CCN(c2ccccc2OCC)CC1	inactive: -7.51%	
O=C1c2sc3nc4n(c(=O)c3c2CCC1Br)CCCCC4 (stereo unspecified)	inactive: 27.8%	
Nn1cnc2c([nH]c3ccccc32)c1=O	inactive: 6.17%	
COc1ccc(NC(=O)C2(C)CCN2C)cc1OC (stereo unspecified)	inactive: -5.34%	
Cc1cc(=O)[nH]c(SCC(=O)Nc2ncc(S(=O)(=O)c3ccc([N+](=O)[O-])cc3)s2)n1	inactive: 14.6%	
Cc1ccccc1NC(=O)N1CCc2ccccc2C1	inactive: 2.41%	
CCOC(=O)c1ccccc1NC(=O)Cn1cnc2c(cnn2C(C)(C)C)c1=O	inactive: -4.54%	
Cc1c(CCC(=O)O)c(=O)oc2cc(OCc3cccc(F)c3)ccc12	inactive: 10.9%	
O=S(=O)(c1ccc(-c2csc(Nc3ccc(F)cc3)n2)cc1)N1CCCC1	inactive: 16.5%	
Cc1cc(-c2nc3ncccc3o2)ccc1NC(=S)NC(=O)c1ccco1	inactive: 14.7%	
NS(=O)(=O)c1ccc(NC(=O)/C=C/c2cccc(Cl)c2)cc1	inactive: -4.17%	
COc1ccc(OC)c(-n2nnc(-c3nc(-c4ccc5c(c4)OCO5)no3)c2C)c1	inactive: 20.2%	
CCOC(=O)C1CCN(c2c(NCc3ccc(C(=O)N(C)Cc4ccccc4)cc3)c(=O)c2=O)CC1	inactive: -0.503%	
Cn1nc(C(F)(F)F)c(C#N)c1N1CCN(c2ccccc2F)CC1	inactive: -1.03%	
Cc1cc(=O)c2ccccc2n1Cc1ccccc1	inactive: -1.08%	

SMILES	growth rescue (activation)	Potency
Cc1ccnn1CCC(=O)N1CCCC(CCC(=O)N2CCN(c3ccccn3)CC2)C1 (stereo unspecified)	inactive: 11.8%	
CCOC(=O)c1c(NC(=O)CSc2nnc(C)c(=O)[nH]2)sc(C)c1-c1ccc(C)cc1	inactive: -1.07%	
CCOC(=O)/C=C1/SCC(=O)N1Cc1ccc(Br)cc1	inactive: 6.95%	
O=S(=O)(c1cccs1)N1CCN(CCc2ccccc2)CC1	inactive: 14.3%	
Cc1cc(C(=O)OCC(=O)Nc2ccccc2C#N)c(C)o1	inactive: 37.3%	
O=C(NCCN1C(=O)S/C(=C\c2ccc(Cl)c(Cl)c2)C1=O)c1cnccn1	inactive: 16.9%	
C/C(=N\NC(=O)CN1CCCCC1)c1ccccc1O	inactive: -1.01%	
N#Cc1cccc(NC(=O)COC(=O)c2ccc[n+]([O-])c2)c1	inactive: 4.14%	
COc1cc(CN2C[C@@H](CO)O[C@@H](n3cnc4c(NCc5ccc(F)cc5)ncnc43)C2)cc(OC)c1OC	inactive: 4.66%	
NC(=O)c1ccccc1NC(=O)CCn1c(=S)oc2ccccc21	inactive: -1.36%	
Cc1ccc(OCC(=O)Nc2c[nH]c(=O)[nH]c2=O)cc1C	inactive: 0.598%	
O=C(Nc1ccc(N2CCOCC2)cc1N1CCOCC1)c1ccccc1	inactive: 7.19%	
O=C(c1ccc(N2CCOCC2)c([N+](=O)[O-])c1)N1CCN(c2ccccc2)CC1	inactive: 3.36%	
O=C(/C=C/c1ccc2c(c1)OCO2)NCc1ccncc1	inactive: -20.4%	
CC(=O)Nc1nc(C)c(Oc2ccc(Cl)cc2Cl)c(=O)[nH]1	inactive: 12.3%	
Cn1nccc1C(=O)OCC(=O)Nc1ccc(S(N)(=O)=O)cc1	inactive: 0.582%	
Cc1cc(C(=O)N2CCCC(C(=O)c3cccc(C(F)(F)F)c3)C2)nc(C)n1 (stereo unspecified)	inactive: 13.3%	
Cc1nnc(NN2CCOCC2)[nH]c1=O	inactive: 8.54%	
Cc1nc(NC(=O)c2ccc(Cl)cc2)sc1Cc1ccc2c(c1)OCO2	inactive: -0.724%	
COc1ccc(C(=O)c2cc([N+](=O)[O-])ccc2N2CCCC2)cc1	inactive: 1.22%	
COc1ccc(OC)c(Cc2nnc(CCC(=O)NC3CCCCCCC3)o2)c1	inactive: 11.2%	
CC(/C=N/n1c(-c2ccc(C)cc2)n[nH]c1=S)=C\c1ccco1	inactive: 8.98%	

SMILES	growth rescue (activation)	Potency
CC1CCCCC1NC(=O)CCCCn1c(=O)[nH]c2ccsc2c1=O (stereo unspecified)	inactive: 5.48%	
N#CCc1nc(-c2cc3ccccc3oc2=O)cs1	inactive: -5.9%	
Cc1cccc(N(CC(=O)Nc2ccccc2-c2ccccc2)S(=O)(=O)c2ccccc2)c1C	inactive: -18.5%	
CCOC(=O)C1CCN(CC(O)COCc2cccs2)CC1 (stereo unspecified)	inactive: 3.12%	
Cc1cnc(NC(=O)c2cc(S(=O)(=O)N(C)C)ccc2N2CCCC2)s1	inactive: -10.5%	
COc1ccc(C(=O)OCC(=O)N2CCN(C(=O)c3ccco3)CC2)cc1OC	inactive: -6.38%	
COc1ccc(C)cc1Nc1nc(C)nc2c1oc1ccccc12	inactive: 13.4%	
O=C(Nc1cccc(Oc2ccccc2)c1)C1Cc2c(-c3ccc4c(c3)OCO4)ccnc2O1 (stereo unspecified)	inactive: 24.3%	
Fc1ccc(-c2csc3ncnc(Cl)c23)cc1		active: 14.1 µM
O=c1[nH]c(/C=C/c2ccccc2OC(F)F)nc2c1cnn2-c1ccccc1	inactive: -0.191%	
CC(C(=O)Nc1ccc(C#N)cc1)N(C)CC(=O)N(C)c1c(N)n(Cc2ccccc2)c(=O)[nH]c1=O (stereo unspecified)	inactive: -3.93%	
O=C(CCc1ccc(S(=O)(=O)NCc2ccccc2)cc1)NCC1CCCO1 (stereo unspecified)	inactive: -5.39%	
Cc1ccc(N2C(=O)Nc3ccc(Br)cc3C2(O)C(=O)NCCN(C)C)cc1C (stereo unspecified)	inactive: -5.26%	
NS(=O)(=O)c1cccc(NC(=O)COC(=O)/C=C/c2nc3ccccc3s2)c1	inactive: 15.1%	
COC(=O)c1ccc(C2C3=C(Nc4nnnn42)c2ccccc2OC3)cc1 (stereo unspecified)	inactive: 23.2%	
CC(C)CC(=O)NC(=S)Nc1ccc(CN2CCOCC2)cc1	inactive: 1.24%	
COc1ccc(NC(=O)COC(=O)CCc2ccc(S(=O)(=O)N3CCOCC3)cc2)cc1Cl	inactive: -2.65%	
Cc1ccc(N2CC(C(=O)N3CCC(C(=O)NC(C)(C)C)CC3)CC2=O)cc1 (stereo unspecified)	inactive: -27.6%	
